Reference: PubChem BioAssay (Tox21)
“And” between values parts separate entries of the source, which are not always exact repeats. Identical values can stand only once. The shares of active, inactive and inconclusive entries below differ from those in the screen. Entries that show only a call come without a potency. For some of these results: Where the call is inconclusive, the potency comes from a doubtful curve fit. The source made the active and inactive calls. Unless noted, the call rests on the fitted dose curve; in most records, active means well fitted curve in the direction sought with a large enough effect in the repeat runs; inconclusive means weak or mixed curves; inactive means no such curve, though single readings can be large; an effect the other way counts as inactive or inconclusive.

Columns and labels:
[1] = qHTS assay for identifying genotoxic compounds that show differential cytotoxicity against isogenic chicken DT40 cell lines with known DNA damage response pathways - Rad54/Ku70 mutant cell line (AID 743015); conditions: DT40 Rad54/Ku70 mutant viability, CellTiter-Glo, 40 h; activity change, negative = cytotoxicity: at 66.8 µM (top of the series) unless noted; further: nearly all actives have a fitted effect of over 60% in size; further: potency means the concentration at half of the fitted maximal effect
[2] = qHTS assay to identify small molecule antagonists of the estrogen receptor alpha (ER-alpha) signaling pathway - cell viability counter screen (AID 743074; calls by dose curve;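 further: HEK293 cells carrying ER-alpha-UAS-bla reporter stimulated with 17beta-estradiol; nearly all actives have a fitted effect of over 45% in size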; further: potency means the concentration at half of the fitted maximal effect)
[3] = molecular target: Estrogen receptor (Homo sapiens) (UniProt P03372); assay: qHTS assay to identify small molecule agonists of the estrogen receptor alpha (ER-alpha) signaling pathway using the BG1 cell line (AID 743079); conditions: BG1Luc4E2 cells, ERE-luciferase agonist, 22 h; activation: at 70.3 µM (top of the series) unless noted; further: nearly all actives have a fitted effect of over 20% in size; further: potency means the concentration at half of the fitted maximal effect
[4] = molecular target: Peroxisome proliferator-activated receptor delta (Homo sapiens) (UniProt Q03181); assay: qHTS assay to identify small molecule antagonists of the peroxisome proliferator-activated receptor delta (PPARd) signaling pathway (AID 743215; active means well fitted inhibition curve with a large enough effect in the signal ratio in the repeat runs, not every such curve was filed as active; inconclusive means weak or mixed curves, or effect the other way; inactive means no such curve, though single readings can be large or run the other way; the % refers to the signal ratio;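 further: cells stimulated with agonist L165041 at 300 nM final during compound exposure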; further: potency means the concentration at half of the fitted maximal effect); conditions: HEK293H PPARd-UAS-bla, beta-lactamase FRET ratio, antagonist, 17 h; ratio activity, negative = inhibition: at 62 µM (top of the series) unless noted
Summary of the method: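 HEK293H GeneBLAzer PPARd UAS-bla reporter cells; cpd + L165041 300 nM final, 17 h 37 C; LiveBLAzer B/G FRET substrate 2 h RT; fluorescence intensity read-out. Antagonist mode.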

[5] = qHTS assay to identify small molecule agonists of H2AX (AID 1224845; active means well fitted activation curve with a large enough effect in the signal ratio in the repeat runs, not every such curve was filed as active; inconclusive means weak or mixed curves; the % refers to the signal ratio; further: potency means the concentration at half of the fitted maximal effect); conditions: CHO-K1 phospho-H2AX Ser139 HTRF, 3 h; activation (H2AX phosphorylation): at 154 µM (top of the series) unless noted
Summary of the method: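 Wild-type CHO-K1 cells, plated overnight, exposed 3hr at 37C to 15 concentrations (0.76% DMSO final). Lysed, then HTRF anti-pH2AX (S139) cryptate and anti-H2AX-d2 antibodies, 24 hr room temperature; 665/620 nm emission read.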

[6] = A CellTox Green Cytotoxicity Assay to monitor cytotoxicity in HepG2 cells - 24 hour (AID 1224878); further: nearly all actives have a fitted effect of over 45% in size; further: potency means the concentration at half of the fitted maximal effect
Summary of the method: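 HepG2, 600 cells/well premixed w/ CellTox Green; 5 h settle, 37 C/5% CO2; pintool cpd add (DMSO); 37 C, 40 h; fluorescence read at 0, 8, 16, 24, 32, 40 h.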

[7] = A CellTox Green Cytotoxicity Assay to monitor cytotoxicity in HEK293 cells - 16 hour (AID 1224888); further: nearly all actives have a fitted effect of over 35% in size; further: potency means the concentration at half of the fitted maximal effect
Summary of the method: (§1)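 Read-out: fluorescence of a cell-impermeant cyanine dye staining DNA of dead cells, proportional to cytotoxicity. HEK293, 600 cells/well with reagent, compound (23 nL DMSO) added after 5 h; reads at 0, 8, 16, 24, 32, 40 h.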

[8] = molecular target: Nuclear receptor subfamily 1 group I member 2 (Homo sapiens) (UniProt O75469); assay: Human pregnane X receptor (PXR) small molecule agonists, qHTS assay (AID 1346982); further: nearly all actives have a fitted effect of over 35% in size; further: potency means the concentration at half of the fitted maximal effect
Summary of the method: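 HepG2 PXR-Luc reporter line, 5% charcoal-stripped FBS; 5 hr pre-incubation, compound (DMSO) 24 hr at 37 C/5% CO2; ONE-Glo 30 min RT; luminescence read-out.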

[9] = qHTS assay to identify small molecule agonists of H2AX - cell viability counter screen (AID 1224847; calls by dose curve; further: nearly all actives have a fitted effect of over 30% in size; further: potency means the concentration at half of the fitted maximal effect; on activity change, negative = cytotoxicity: top concentration of the series differs between compounds)
Summary of the method: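 Cells plated first: CHO-K1, 1000 per well in 10% FBS medium, incubated overnight at 37C. Then 15-point compound titration added (final DMSO 0.76%) for 3 hr. Finally CellTiter-Glo added and luminescence read.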

[10] = qHTS assay to identify small molecule agonists of the estrogen receptor beta (ER-beta) signaling pathway - cell viability counter screen (AID 1259380); further: nearly all actives have a fitted effect of over 30% in size; further: potency means the concentration at half of the fitted maximal effect
Summary of the method: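 Luminescence read-out (CellTiter-Glo, 30 min, room temp) taken in the same wells as the beta-lactamase reporter assay; ER-beta-UAS-bla HEK293T cells exposed to DMSO-dissolved compounds for 16 hr at 37C in 2% charcoal-stripped FBS medium.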

[11] = molecular target: Progesterone receptor (Homo sapiens) (UniProt P06401); assay: qHTS assay to identify small molecule agonists of the progesterone receptor (PR) signaling pathway (AID 1346784; calls by dose curve; further: nearly all actives have a fitted effect of over 30% in size; further: potency means the concentration at half of the fitted maximal effect); conditions: PR-UAS-bla HEK293T, beta-lactamase FRET ratio, 16 h; activation: at 92.4 µM (top of the series) unless noted
Summary of the method: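 Beta-lactamase reporter read-out: after 16 hr compound treatment at 37C and a further 2 hr at room temperature with LiveBLAzer B/G FRET substrate, fluorescence was measured in PR-UAS-bla HEK 293T cells grown in 2% charcoal-stripped serum.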

[12] = molecular target: Vitamin D3 receptor (Homo sapiens) (UniProt P11473); assay: qHTS assay to identify small molecule agonists of the vitamin D receptor (VDR) signaling pathway (AID 743222; calls by dose curve; further: potency means the concentration at half of the fitted maximal effect); conditions: HEK293T VDR-UAS-bla, beta-lactamase FRET ratio, 16 h; activation: at 63.5 µM (top of the series) unless noted
Summary of the method: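 Beta-lactamase reporter readout (LiveBLAzer B/G FRET, 2 h RT) in VDR-bla cells after 16 h compound treatment at 37C, 5% CO2; cells pre-incubated 4 h before pin transfer of DMSO solutions.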

[13] = qHTS RealTime-Glo MT Cell Viability Assay in HEK293 cells - 32 hour (AID 1224868); further: nearly all actives have a fitted effect of over 50% in size; further: potency means the concentration at half of the fitted maximal effect
Summary of the method: (§2)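 Cells + reagent dispensed (600 cells/well, HEK293) → 5 h at 37 C/5% CO2 → 23 nL compound in DMSO pinned → 40 h at 37 C → luminescence read at 0, 8, 16, 24, 32, 40 h.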

[14] = A CellTox Green Cytotoxicity Assay to monitor cytotoxicity in HEK293 cells - 40 hour (AID 1224871); further: nearly all actives have a fitted effect of over 45% in size; further: potency means the concentration at half of the fitted maximal effect
Summary of the method: as §1

[15] = qHTS RealTime-Glo MT Cell Viability Assay in HEK293 cells - 24 hour (AID 1224886); further: nearly all actives have a fitted effect of over 50% in size; further: potency means the concentration at half of the fitted maximal effect; on activity change, negative = cytotoxicity: top concentration of the series differs between compounds
Summary of the method: as §2

[16] = molecular target: Estrogen receptor beta (Homo sapiens) (UniProt Q92731); assay: qHTS assay to identify small molecule agonists of the estrogen receptor beta (ER-beta) signaling pathway (AID 1259377; active means well fitted activation curve with a large enough effect in the signal ratio in the repeat runs, not every such curve was filed as active; inconclusive means weak or mixed curves, or effect the other way; the % refers to the signal ratio); conditions: ER-beta-UAS-bla HEK293T, beta-lactamase FRET ratio, 16 h; activation: at 92.4 µM (top of the series) unless noted
Summary of the method: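 HEK293T ER-beta-UAS-bla; 2% charcoal-stripped FBS; cells pre-incubated 6 hr, compound 16 hr, 37C/5% CO2; LiveBLAzer B/G FRET substrate 2 h RT; fluorescence intensity read.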

[17] = A CellTox Green Cytotoxicity Assay to monitor cytotoxicity in HEK293 cells - 8 hour (AID 1224884); further: nearly all actives have a fitted effect of over 35% in size; further: potency means the concentration at half of the fitted maximal effect
Summary of the method: as §1

[18] = Caspase-3/7 induction in CHO-K1 cells by small molecules, qHTS cell viability counter screen (AID 1346979); further: nearly all actives have a fitted effect of over 35% in size; further: potency means the concentration at half of the fitted maximal effect
Summary of the method: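 Cells (CHO-K1, wild type) are plated at 1,500 per well and incubated 5hr. Test compounds in DMSO are then pinned in, followed by 16hr at 37C and 5% CO2. Viability is read by CellTiter-Fluor fluorescence after 1hr.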

[19] = molecular target: Peroxisome proliferator-activated receptor gamma (Homo sapiens) (UniProt P37231); assay: qHTS assay to identify small molecule agonists of the peroxisome proliferator-activated receptor gamma (PPARg) signaling pathway (AID 743094; active means well fitted activation curve with a large enough effect in the signal ratio in the repeat runs, not every such curve was filed as active; inconclusive means weak or mixed curves, or effect the other way; inactive means no such curve, though single readings can be large or run the other way; the % refers to the signal ratio); conditions: HEK293H PPARg-UAS-bla, beta-lactamase FRET ratio, 17 h; activation: at 57 µM (top of the series) unless noted
Summary of the method: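 HEK293H PPARg-bla cells, 5 h settle at 37C/5% CO2; compound (DMSO) 17 h, 37C; B/G FRET substrate 1 h RT; fluorescence intensity read-out. qHTS format.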

[20] = molecular target: Bile acid receptor (Homo sapiens) (UniProt Q96RI1); assay: qHTS assay to identify small molecule antagonists of the farnesoid-X-receptor (FXR) signaling pathway (AID 743217; active means well fitted inhibition curve with a large enough effect in the signal ratio in the repeat runs, not every such curve was filed as active; inconclusive means weak or mixed curves, or effect the other way; inactive means no such curve, though single readings can be large or run the other way; the % refers to the signal ratio); conditions: HEK293T FXR-UAS-bla, beta-lactamase ratio, CDCA-stimulated, 16 h; activity change, negative = inhibition: at 62.6 µM (top of the series) unless noted
Summary of the method: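 Read-out: beta-lactamase FRET fluorescence (LiveBLAzer B/G substrate, 2 h, room temperature) in GeneBLAzer FXR-UAS-bla HEK 293T cells. Compounds were co-dosed with 50 uM chenodeoxycholic acid (final) and incubated 16 h at 37 °C.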
Tags describe the fitted curve by direction and shape or compound fluorescence and quenching.

Chain of UniProt P06401 (P06401 whole entry, looked up): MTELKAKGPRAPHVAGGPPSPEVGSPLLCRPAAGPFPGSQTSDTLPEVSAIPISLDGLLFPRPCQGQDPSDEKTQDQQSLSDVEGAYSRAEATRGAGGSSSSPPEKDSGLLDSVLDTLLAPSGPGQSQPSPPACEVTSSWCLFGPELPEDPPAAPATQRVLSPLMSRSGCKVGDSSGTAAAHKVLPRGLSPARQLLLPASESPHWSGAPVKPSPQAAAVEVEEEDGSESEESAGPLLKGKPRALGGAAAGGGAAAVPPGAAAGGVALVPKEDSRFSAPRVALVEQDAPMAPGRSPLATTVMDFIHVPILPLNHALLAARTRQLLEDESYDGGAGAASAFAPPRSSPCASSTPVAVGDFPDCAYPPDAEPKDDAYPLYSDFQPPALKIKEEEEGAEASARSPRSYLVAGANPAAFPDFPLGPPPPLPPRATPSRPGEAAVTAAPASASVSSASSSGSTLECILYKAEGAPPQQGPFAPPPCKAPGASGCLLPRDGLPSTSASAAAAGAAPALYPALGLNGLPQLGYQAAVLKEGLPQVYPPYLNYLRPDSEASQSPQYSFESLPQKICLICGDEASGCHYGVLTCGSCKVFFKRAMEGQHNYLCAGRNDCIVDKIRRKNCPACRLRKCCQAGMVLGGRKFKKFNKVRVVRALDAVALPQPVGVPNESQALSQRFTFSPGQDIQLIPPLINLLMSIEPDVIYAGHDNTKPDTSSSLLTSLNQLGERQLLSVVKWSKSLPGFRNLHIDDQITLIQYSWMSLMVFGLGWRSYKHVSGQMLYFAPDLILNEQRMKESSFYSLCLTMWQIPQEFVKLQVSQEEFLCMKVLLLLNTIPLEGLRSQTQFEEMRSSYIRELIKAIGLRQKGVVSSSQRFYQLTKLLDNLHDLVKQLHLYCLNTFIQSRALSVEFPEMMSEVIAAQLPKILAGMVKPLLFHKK
Chain of UniProt Q03181 (Q03181 whole entry, looked up): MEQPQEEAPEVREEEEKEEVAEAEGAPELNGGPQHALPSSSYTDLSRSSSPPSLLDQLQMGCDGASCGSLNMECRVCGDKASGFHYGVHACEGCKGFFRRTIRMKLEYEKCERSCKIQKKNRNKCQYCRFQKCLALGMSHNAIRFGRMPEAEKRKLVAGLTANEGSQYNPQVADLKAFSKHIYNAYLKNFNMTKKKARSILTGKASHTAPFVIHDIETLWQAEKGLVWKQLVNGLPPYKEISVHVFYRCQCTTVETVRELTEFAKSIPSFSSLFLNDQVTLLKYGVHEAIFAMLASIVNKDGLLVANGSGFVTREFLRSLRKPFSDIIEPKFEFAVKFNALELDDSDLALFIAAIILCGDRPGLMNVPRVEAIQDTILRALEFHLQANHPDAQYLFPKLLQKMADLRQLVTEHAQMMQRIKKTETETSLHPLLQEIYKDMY
Chain of UniProt Q96RI1 (Q96RI1 whole entry, looked up): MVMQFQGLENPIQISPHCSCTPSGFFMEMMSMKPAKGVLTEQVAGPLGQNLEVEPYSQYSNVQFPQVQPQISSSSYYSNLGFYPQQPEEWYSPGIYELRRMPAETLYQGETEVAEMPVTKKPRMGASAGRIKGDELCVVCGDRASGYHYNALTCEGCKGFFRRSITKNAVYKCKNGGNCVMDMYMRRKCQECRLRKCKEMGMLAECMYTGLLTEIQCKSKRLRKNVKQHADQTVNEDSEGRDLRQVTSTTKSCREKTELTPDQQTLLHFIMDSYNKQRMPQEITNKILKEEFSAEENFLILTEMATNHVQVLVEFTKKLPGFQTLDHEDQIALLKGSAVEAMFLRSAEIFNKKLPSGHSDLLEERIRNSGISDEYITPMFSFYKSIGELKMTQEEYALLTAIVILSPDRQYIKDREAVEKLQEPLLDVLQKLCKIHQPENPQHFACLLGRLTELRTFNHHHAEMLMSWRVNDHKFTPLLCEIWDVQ
Chain of UniProt P37231 (P37231 whole entry, looked up): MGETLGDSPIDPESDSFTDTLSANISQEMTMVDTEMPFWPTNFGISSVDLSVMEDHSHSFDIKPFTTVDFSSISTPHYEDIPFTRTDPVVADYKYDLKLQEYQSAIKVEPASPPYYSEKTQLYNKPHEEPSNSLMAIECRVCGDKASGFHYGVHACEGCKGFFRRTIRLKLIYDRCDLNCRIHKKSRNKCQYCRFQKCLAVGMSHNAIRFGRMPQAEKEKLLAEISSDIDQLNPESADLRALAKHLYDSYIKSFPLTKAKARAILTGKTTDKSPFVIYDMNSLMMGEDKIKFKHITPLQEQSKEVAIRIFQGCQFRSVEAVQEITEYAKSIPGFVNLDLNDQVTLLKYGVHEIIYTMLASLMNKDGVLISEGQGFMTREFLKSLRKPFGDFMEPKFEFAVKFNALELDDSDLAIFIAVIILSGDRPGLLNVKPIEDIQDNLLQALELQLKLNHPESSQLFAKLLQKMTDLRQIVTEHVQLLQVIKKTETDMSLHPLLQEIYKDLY
Chain of UniProt P11473 (P11473 whole entry, looked up): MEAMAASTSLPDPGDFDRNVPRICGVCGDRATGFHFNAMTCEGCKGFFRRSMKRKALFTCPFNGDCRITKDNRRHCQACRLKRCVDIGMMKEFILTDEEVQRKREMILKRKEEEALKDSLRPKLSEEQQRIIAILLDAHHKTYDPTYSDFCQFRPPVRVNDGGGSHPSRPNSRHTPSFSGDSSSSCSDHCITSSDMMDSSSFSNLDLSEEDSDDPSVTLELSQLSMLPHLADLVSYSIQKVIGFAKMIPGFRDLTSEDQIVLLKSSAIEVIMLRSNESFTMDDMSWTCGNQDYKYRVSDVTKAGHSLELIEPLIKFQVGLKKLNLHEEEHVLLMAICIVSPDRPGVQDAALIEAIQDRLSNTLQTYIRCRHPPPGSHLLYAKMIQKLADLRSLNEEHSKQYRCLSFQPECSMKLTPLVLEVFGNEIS
Chain of UniProt P03372 (P03372 whole entry, looked up): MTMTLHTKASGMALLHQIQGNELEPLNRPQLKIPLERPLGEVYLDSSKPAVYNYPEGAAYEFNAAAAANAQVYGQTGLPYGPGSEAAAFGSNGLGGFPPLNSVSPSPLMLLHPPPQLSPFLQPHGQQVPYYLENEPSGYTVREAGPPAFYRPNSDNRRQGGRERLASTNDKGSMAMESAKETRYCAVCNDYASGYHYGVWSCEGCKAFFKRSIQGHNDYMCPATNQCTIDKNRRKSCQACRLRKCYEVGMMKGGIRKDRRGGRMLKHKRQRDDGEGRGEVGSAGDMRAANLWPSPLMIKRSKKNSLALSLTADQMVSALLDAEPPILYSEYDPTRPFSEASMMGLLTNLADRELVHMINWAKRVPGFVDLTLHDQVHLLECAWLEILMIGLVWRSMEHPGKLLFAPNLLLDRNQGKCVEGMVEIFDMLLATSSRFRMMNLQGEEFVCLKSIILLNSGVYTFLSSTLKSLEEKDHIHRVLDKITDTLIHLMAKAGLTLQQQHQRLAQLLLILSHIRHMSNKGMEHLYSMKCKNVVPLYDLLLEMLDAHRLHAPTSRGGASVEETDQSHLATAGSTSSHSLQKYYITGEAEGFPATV
Chain of UniProt O75469 (O75469 whole entry, looked up): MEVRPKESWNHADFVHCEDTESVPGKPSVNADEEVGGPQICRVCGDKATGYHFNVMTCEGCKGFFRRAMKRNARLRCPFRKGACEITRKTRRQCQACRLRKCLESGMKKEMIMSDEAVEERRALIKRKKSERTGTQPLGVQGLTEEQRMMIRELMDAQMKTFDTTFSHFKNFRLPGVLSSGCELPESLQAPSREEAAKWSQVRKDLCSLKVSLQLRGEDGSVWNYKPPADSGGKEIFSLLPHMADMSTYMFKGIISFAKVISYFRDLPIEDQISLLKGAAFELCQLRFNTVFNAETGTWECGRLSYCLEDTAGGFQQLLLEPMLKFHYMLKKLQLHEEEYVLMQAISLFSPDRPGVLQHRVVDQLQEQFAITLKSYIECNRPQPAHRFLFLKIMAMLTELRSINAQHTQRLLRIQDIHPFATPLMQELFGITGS
Chain of UniProt Q92731 (Q92731 whole entry, looked up): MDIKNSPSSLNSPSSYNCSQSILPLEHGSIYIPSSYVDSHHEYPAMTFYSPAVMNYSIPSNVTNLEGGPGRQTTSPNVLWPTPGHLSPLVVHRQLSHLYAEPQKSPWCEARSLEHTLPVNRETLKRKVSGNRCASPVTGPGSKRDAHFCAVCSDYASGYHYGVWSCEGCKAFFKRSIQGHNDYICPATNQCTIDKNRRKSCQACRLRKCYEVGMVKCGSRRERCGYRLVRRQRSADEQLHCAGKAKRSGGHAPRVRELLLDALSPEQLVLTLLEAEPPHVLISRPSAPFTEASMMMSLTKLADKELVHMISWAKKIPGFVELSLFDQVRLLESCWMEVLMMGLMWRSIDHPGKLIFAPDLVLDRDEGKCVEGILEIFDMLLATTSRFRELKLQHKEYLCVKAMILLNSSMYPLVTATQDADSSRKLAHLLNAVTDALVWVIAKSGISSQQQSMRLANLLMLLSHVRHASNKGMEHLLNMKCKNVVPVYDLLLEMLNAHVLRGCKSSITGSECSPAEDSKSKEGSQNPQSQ

CCc1nccnc1CC
Potency [1]: inactive | Potency [2]: inactive | activation [3]: inconclusive: 3.3% [phenotype inactive] [at 32.5 µM] | Potency [4]: inactive

O=S(=O)(O)c1cc(O)c(O)c(S(=O)(=O)O)c1
Potency [5]: inconclusive: 31.8 µM [falling, partial curve] | Potency [6]: inactive | Potency [7]: inactive | Potency [8]: inactive

O=C(O)CCCl
Potency [1]: inconclusive: 31 µM [cytotoxic, partial curve, poor fit] | Potency [3]: inactive | Potency [9]: inactive | Potency [10]: inactive | Potency [11]: inactive

O=C(O)CCc1ccccc1
Potency [12]: inactive | Potency [5]: inactive

CN(C)N=Nc1ccccc1
Potency [5]: inactive | Potency [10]: inactive

O=C1CCC(=O)N1
Potency [5]: inactive | Potency [13]: inconclusive: 54.9 µM [cytotoxic, single point] | Potency [14]: inactive | Potency [15]: inconclusive: 54.9 µM [cytotoxic, single point]

O=C1CCC(N2C(=O)c3ccccc3C2=O)C(=O)N1 (configuration not stated)
Potency [15]: inactive | activation [16]: inconclusive: 7.42% [at 42.5 µM]

Brc1ccc(-c2ccccc2)cc1
Potency [2]: inconclusive: 61.5 µM [rising, single point] | activation (H2AX phosphorylation) [5]: inconclusive: 6.44% | Potency [11]: inactive

CCCCC(CC)COCCC#N (configuration not stated)
Potency [17]: inactive | Potency [11]: inactive

COc1ccc(C(=O)c2ccc(C)cc2)c(O)c1
Potency [1]: inconclusive: 33.5 µM [cytotoxic] and inconclusive: 61.8 µM [cytotoxic, single point] | Potency [2]: inactive | Potency [3]: active: 13.3 µM and active: 12.3 µM | Potency [12]: inconclusive: 49.5 µM [rising, partial curve, poor fit] | Potency [9]: inconclusive: 90.7 µM [cytotoxic, partial curve] | Potency [13]: inconclusive: 39.3 µM [cytotoxic, partial curve] | Potency [15]: inconclusive: 49.5 µM [cytotoxic, partial curve]

NS(=O)(=O)c1ccc(Cl)c(S(N)(=O)=O)c1
Potency [9]: inactive | Potency [10]: inconclusive: 29.8 µM [rising, partial curve, poor fit] | Potency [18]: inactive

COc1ccc(OC)c(OC)c1
Potency [2]: inactive | Potency [3]: inconclusive: 30.6 µM [activator, partial curve, poor fit] | Potency [9]: inactive | Potency [13]: inconclusive: 61.6 µM [rising, single point] | Potency [7]: inactive | activation [16]: inconclusive: 6.66%

O=C(O)P(=O)(O)O
Potency [9]: inconclusive: 0.174 µM [cytotoxic, single point] | Potency [13]: inactive | Potency [15]: inactive | Potency [11]: inactive

Cc1cccc(Nc2ccncc2S(=O)(=O)NC(=O)NC(C)C)c1
activation [19]: inconclusive: 11.1% [at 26.2 µM] | Potency [12]: inactive | Potency [5]: inactive | Potency [18]: inconclusive: 33.5 µM [rising, partial curve, poor fit] | Potency [8]: inconclusive: 16.8 µM [activator, single point]

CC1(C)C(=O)N(CO)C(=O)N1CO
Potency [13]: inactive | Potency [14]: inconclusive: 21.9 µM [activator, single point] | Potency [17]: inconclusive: 21.9 µM [activator, single point] | Potency [7]: inconclusive: 21.9 µM [activator, single point]

C=CC1CC2C=CC1C2 (configuration not stated)
Potency [6]: inactive | Potency [18]: inactive

CCOc1ccccc1OCC1CNCCO1 (configuration not stated)
Potency [4]: inconclusive: 9.4 nM [fluorescent, full curve, poor fit] | Potency [14]: inactive | Potency [10]: inactive

CCCn1cc[n+](C)c1C
Potency [4]: inactive | Potency [12]: inactive

CCc1ncc(C)[nH]1
Potency [2]: inactive | activity change, negative = inhibition [20]: inconclusive: 4.84% | Potency [9]: inactive

O=[N+]([O-])c1cc(C(F)(F)F)ccc1Cl
Potency [19]: inactive | Potency [13]: inactive | Potency [14]: inconclusive: 63 µM [activator, single point] and inactive | Potency [6]: inactive

C#CC(O)CCCCC (configuration not stated)
Potency [9]: inactive | Potency [11]: active: 27.5 µM

COc1cccc(Br)c1
activity change, negative = inhibition [20]: inconclusive: -12% | Potency [6]: inconclusive: 54.9 µM [activator, single point]

On1nnc2ccccc21
Potency [2]: inconclusive: 54.9 µM [cytotoxic, single point] | Potency [13]: inactive | Potency [18]: inactive

C=C[Si](OCC)(OCC)OCC
Potency [9]: inconclusive: 1.79 µM [cytotoxic, single point]

COC(=O)CCCCCCCCC(=O)OC
activity change, negative = inhibition [20]: inconclusive: 2.25% [at 81.1 µM] | Potency [10]: inactive

CCN1CCN(C(=O)N[C@@H](C(=O)N[C@@H]2C(=O)N3C(C(=O)O)=C(CSc4nnnn4C)CS[C@H]23)c2ccc(O)cc2)C(=O)C1=O
Potency [18]: inactive
